Results: paper PMC8329185, “Distinct mutations in importin-β family nucleocytoplasmic transport receptors transportin-SR and importin-13 affect specific cargo binding” (Scientific Reports, 2021)

What was measured:
[1] = target: T1, GST-TrnSR (WT, without mCherry) (human, UniProt Q9Y5L0 1-923); experiment: SPR; localized SPR (OpenSPR, Nicoya); His6-DNAJB1 fixed on Ni2+-charged NTA sensor, GST-TrnSR injected at varying concentrations; TB with 0.05% Tween-20 without EGTA, 20 uL/min; His6-CBX1 in the reference channel; one-to-one model; details: both partners purified
T1 construct: transportin-SR (TrnSR), human cDNA in pGEX-6p3; used in the LSPR experiment; also called GST-NTR; source: E. coli BL21, purified (GSH-Sepharose 4B); not shown: GST, N-terminal, kept
T1 sequence (looked up): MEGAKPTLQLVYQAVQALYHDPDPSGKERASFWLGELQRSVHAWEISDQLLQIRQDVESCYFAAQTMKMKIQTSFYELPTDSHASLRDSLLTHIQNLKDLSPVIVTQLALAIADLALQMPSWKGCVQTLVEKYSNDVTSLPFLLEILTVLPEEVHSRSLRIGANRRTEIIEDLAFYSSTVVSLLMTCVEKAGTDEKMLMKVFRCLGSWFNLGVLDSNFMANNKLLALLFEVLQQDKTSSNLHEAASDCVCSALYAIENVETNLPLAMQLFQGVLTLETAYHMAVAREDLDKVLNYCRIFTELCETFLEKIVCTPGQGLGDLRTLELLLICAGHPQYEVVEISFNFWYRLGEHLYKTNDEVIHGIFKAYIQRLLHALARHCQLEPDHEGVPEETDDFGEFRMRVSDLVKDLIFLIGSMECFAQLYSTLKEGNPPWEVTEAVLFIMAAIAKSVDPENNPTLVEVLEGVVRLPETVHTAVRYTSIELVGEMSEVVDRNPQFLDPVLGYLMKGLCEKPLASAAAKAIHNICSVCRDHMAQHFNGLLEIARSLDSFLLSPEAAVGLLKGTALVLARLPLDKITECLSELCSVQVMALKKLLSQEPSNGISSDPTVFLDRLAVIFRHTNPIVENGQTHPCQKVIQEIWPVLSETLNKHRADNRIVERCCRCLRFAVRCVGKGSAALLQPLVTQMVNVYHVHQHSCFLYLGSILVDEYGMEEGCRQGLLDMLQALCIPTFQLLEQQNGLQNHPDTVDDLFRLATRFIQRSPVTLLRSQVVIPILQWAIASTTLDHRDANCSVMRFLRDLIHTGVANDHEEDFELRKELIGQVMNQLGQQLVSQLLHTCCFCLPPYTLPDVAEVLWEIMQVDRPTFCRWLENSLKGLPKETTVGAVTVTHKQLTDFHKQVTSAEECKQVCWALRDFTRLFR

[2] = target: T2, GST-TrnSR-D750R/D751R (without mCherry) (human, UniProt Q9Y5L0 1-923, D750R | D751R); experiment: as above; details: both partners purified
T2 construct: transportin-SR (TrnSR), human cDNA in pGEX-6p3, double mutant; used in the LSPR experiment; source: E. coli BL21, purified (GSH-Sepharose 4B); not shown: GST, N-terminal, kept
T2 sequence (looked up): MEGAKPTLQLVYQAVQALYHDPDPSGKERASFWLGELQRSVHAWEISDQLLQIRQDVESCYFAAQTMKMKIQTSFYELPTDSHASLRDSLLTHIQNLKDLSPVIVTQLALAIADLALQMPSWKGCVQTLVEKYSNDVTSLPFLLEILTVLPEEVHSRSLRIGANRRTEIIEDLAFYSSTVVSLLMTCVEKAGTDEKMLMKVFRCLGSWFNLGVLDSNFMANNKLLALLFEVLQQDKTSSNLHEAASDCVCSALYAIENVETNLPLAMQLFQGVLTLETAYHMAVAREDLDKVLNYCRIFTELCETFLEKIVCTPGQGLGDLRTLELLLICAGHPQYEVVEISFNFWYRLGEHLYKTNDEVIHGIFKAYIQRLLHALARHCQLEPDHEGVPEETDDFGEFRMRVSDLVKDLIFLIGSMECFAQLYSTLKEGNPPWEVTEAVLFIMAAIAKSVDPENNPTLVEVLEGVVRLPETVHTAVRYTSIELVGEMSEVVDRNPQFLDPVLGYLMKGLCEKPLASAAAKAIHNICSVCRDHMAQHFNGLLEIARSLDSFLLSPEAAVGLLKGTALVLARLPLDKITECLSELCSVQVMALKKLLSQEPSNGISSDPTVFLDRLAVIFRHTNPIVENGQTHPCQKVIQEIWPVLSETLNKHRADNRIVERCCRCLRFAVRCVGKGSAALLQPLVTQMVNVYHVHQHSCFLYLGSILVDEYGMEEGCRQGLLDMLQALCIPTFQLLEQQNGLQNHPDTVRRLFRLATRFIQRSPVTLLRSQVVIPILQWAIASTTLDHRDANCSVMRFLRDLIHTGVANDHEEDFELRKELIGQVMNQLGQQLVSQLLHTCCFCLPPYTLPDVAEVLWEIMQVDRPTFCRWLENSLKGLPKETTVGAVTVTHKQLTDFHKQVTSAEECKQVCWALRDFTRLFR

B1: His6-DNAJB1 (natural protein, human)
chain: MGKDYYQTLGLARGASDEEIKRAYRRQALRYHPDKNKEPGAEEKFKEIAEAYDVLSDPRKREIFDRYGEEGLKGSGPSGGSGGGANGTSFSYTFHGDPHAMFAEFFGGRNPFDTFFGQRNGEEGMDIDDPFSGFPMGMGGFTNVNFGRSRSAQEPARKKQ[about 150 residues not printed]PERIPQTSRTVLEQVLPI
notes: DNAJB1, human (cDNA from a HeLa cDNA library); without GFP; fixed on the Ni-NTA sensor in LSPR; also called His6-tagged DNAJB1
Kd [1]: ~7.4 nM
Kd [2]: ~28 nM
